# Laboratory results: PubChem BioAssay AID1745853 (National Center for Advancing Translational Sciences (NCATS), 2022)
# Values joined by “and” are separate entries in the source; they are usually repeats but may differ in a detail not shown here. Identical values can stand only once. Some of the results follow. The main result of the screen is listed elsewhere. These columns were measured beside it and carry no call.
# Tests used:
# Assay in all cases: Primary Screen for Target Class Profiling of Small Molecule Inhibitors of Methyltransferases
# [1] = biological target: Glycine N-methyltransferase (Homo sapiens) (UniProt Q14749); details: purified enzyme, MTase-Glo SAH luminescence; measured here: GNMT inhibition; at 40 µM; stronger effect = lower value
# In short: (§1)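 Each enzyme was assayed with SAM and its substrate. SAH formation detected by MTase-Glo luminescence; single-point 40 uM screen[…].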
# [2] = biological target: Guanidinoacetate N-methyltransferase (Homo sapiens) (UniProt Q14353); details: purified enzyme, MTase-Glo SAH luminescence; measured here: GAMT inhibition; at 40 µM; stronger effect = lower value
# In short: as §1
# [3] = biological target: Histamine N-methyltransferase (Homo sapiens) (UniProt P50135); details: purified enzyme, MTase-Glo SAH luminescence; measured here: HNMT inhibition; at 40 µM; stronger effect = lower value
# In short: as §1
# [4] = biological target: Nicotinamide N-methyltransferase (Homo sapiens) (UniProt P40261); details: purified enzyme, MTase-Glo SAH luminescence; measured here: NNMT inhibition; at 40 µM; stronger effect = lower value
# In short: as §1
# [5] = biological target: Phenylethanolamine N-methyltransferase (Homo sapiens) (UniProt P11086); details: purified enzyme, MTase-Glo SAH luminescence; measured here: PNMT inhibition; at 40 µM; stronger effect = lower value
# In short: as §1
# % is set by controls: 0 for no effect and ±100 for the full control effect.
SMILES,"activity change, negative = inhibition [1] [%]","activity change, negative = inhibition [2]","activity change, negative = inhibition [3] [%]","activity change, negative = inhibition [4]","activity change, negative = inhibition [5]"
C=Cc1ccc(Cn2nc3n(Cc4ccccc4)c(=O)c4ccccc4n3c2=O)cc1,1.33,0%,6.59,1.16%,0.607%
CC(C)CCOc1ccc2c(-c3ccccc3)cc(=O)oc2c1,2,0.18%,9.98,4.32%,-2.87%
NC/C=C/C(=O)O,2.33,12.6%,7.9,-2.7%,4.45%
Cn1c(=O)c2ccc(C(=O)NC3CCCC3)cc2n2c(SCC(=O)Nc3ccc(F)cc3)nnc12,-3.71,4.33%,2.44,-1.97%,0.819%
CCN(CC)c1cc(CCC(=O)NCCCN2CCOCC2)ccn1,-2.47,-3.35%,-19.9,-8.26%,-2.61%
CNC(=O)[C@@H](CC(C)C)N1CCC[C@H]1C(=O)NCCc1ccccn1,-0.327,-1.16%,1.73,0.216%,-6.27%
O=C(N1CCC2(CCNCC2)CC1)C1(S(=O)(=O)c2ccccc2)CC1,-1.54,2.87%,-14.2,-0.015%,1.92%
CCN(CC)CCOC(=O)c1cc(Cl)c(N)cc1OC,-0.629,8.45%,-6.38,-6.28%,2.38%
CC(C)Cn1c(=O)c2ccccc2n2c(=O)n(CC(=O)N3CCN(c4ccccc4F)CC3)nc12,3.43,0%,9.4,5.55%,3.37%
COc1ccccc1CNC(=O)C1(C)Cn2c(cc3ccccc32)C(=O)N1Cc1cccs1 (stereo not drawn),0.19,0.655%,3.47,-2.8%,0.012%
CC(=O)N1CCN(CC[C@H]2CN(C(=O)c3ccnc(Cl)c3)CC[C@H]2CC(=O)O)CC1,-2.17,-1.97%,1.42,-6.22%,-2.52%
CN(C)Cc1cc(C[C@@H]2C[C@H](NCc3ccc(F)cc3)C2(C)C)no1,-4.7,-2.98%,-14.1,-8.51%,-4.6%
CCOC(=O)c1cc2n(n1)CC(C)(C(=O)NC1CCCC1)N(c1ccc(Cl)cc1C)C2=O (stereo not drawn),7.47,1.17%,6.83,9.43%,6.61%
Cc1cccc(-c2n[nH]n3c2nc(=O)c2ccc(C(=O)NCc4ccccc4Cl)cc23)c1,-7.5,0.687%,-2.83,-13%,-9.27%
C=C[C@@]12COC(=O)C(=C)C1[C@@H](O)[C@H](C(=C)C(=O)OC)[C@@H](OC(=O)C(=C)CO)C2 (stereo partly drawn),-7.32,-5.32%,-26.7,-15.3%,0.258%
CCCn1c(=O)c2ccc(C(=O)NC3CCCC3)cc2n2c(=O)n(CC(=O)NC(C)C)nc12,5.63,0%,8.26,7%,4.18%
C/C=C(/C)C(=O)O[C@H]1[C@H](OC(=O)/C(C)=C\C)[C@@]23C(CC1(C)C)[C@]1(CCC4[C@@]5(C)CC[C@H](O[C@@H]6O[C@H](C(=O)O)[C@@H](O)[C@H](O[C@@H]7O[C@H](CO)[C@H](O)[C@H](O)[C@H]7O[C@@H]7O[C@@H](C)[C@H](O)[C@@H](O)[C@H]7O[C@@H]7OC[C@@H](O)[C@H](O)[C@H]7O)[C@H]6O[C@@H]6O[C@H](CO)[C@H](O)[C@H](O)[C@H]6O)C(C)(C)C5CC[C@@]4(C)[C@]1(C)C[C@H]2O)O[C@H]3O (stereo partly drawn),1.62,7.61%,5.81,2.69%,4.99%
CC(=O)N[C@@H](Cc1c[nH]c2ccccc12)C(=O)OCc1cc(C(F)(F)F)cc(C(F)(F)F)c1,-11.1,15.5%,11.3,-8.18%,6.24%
CS(=O)(=O)N1CC2(CCCN(Cc3cccnc3)C2)Cc2ccccc21 (stereo not drawn),-8.6,-9.46%,-7.73,-13%,-6.93%

SMILES,"activity change, negative = inhibition [1] [%]","activity change, negative = inhibition [2]","activity change, negative = inhibition [3] [%]","activity change, negative = inhibition [4]","activity change, negative = inhibition [5]"
CC(C)NC(=O)C[C@@H]1C[C@H]2O[C@H](CNC(=O)NCc3ccccc3)[C@@H](O)[C@H]2O1,1.18,0.955%,2.29,-2.51%,3.27%
CCc1cccc(NC(=O)N2CC(c3nnc(C(C)C)o3)C3(CCOCC3)C2)c1 (stereo not drawn),-5.32,-2.54%,-1.47,-5.17%,-5.27%
CCOC(=O)c1sc(NC(=O)[C@H](C(C)C)n2c(=O)[nH]c3ccccc3c2=O)nc1C,3.78,6.56%,4.59,-17.8%,-2.9%
O=[S+]([O-])(Nc1ccccc1)c1ccc2c(c1)OCCN(Cc1nccs1)C2,-9.63,-7.53%,-4.02,-16.8%,-6.21%
COC(=O)C1=C(C)NC(C)=C(C(=O)O[C@@H]2CCCN(Cc3ccccc3)C2)[C@@H]1c1cccc([N+](=O)[O-])c1,-1.94,-23.9%,-11.6,-34.6%,-17%
CCc1cc2c(cc3n2CC(C)(C(=O)NC2CCCCCC2)N(c2cc(C)cc(C)c2)C3=O)s1 (stereo not drawn),6.48,4.08%,7.42,11.5%,3.4%
CCc1cc2c(cc3n2CC(C)(C(=O)NC2CCC(C)CC2)N(CC(C)c2ccccc2)C3=O)s1 (stereo not drawn),0.147,4.94%,-2.51,0.455%,-2.45%
CCCN1C(=O)c2cc3sccc3n2CC1(C)C(=O)NC1CCCCCC1 (stereo not drawn),-2.48,3.46%,-2.26,-4.83%,-7.31%
Cn1nnnc1C1CCCN(C(=O)CCC2CCCC2)C1 (stereo not drawn),-4.52,-4.63%,-1.69,-8.55%,-7.77%
COc1ccc(CN2C(=O)[C@H](OC)[C@@H]2C2=CCN(C(=O)CC(C)C)CC2)cc1,-4.77,-10.9%,-4.81,-13%,-10.3%
CNC(=O)Nc1ccc(C)n(CC(=O)N2CCN(c3cc(C)ccc3C)CC2)c1=O,-2.07,-0.167%,0.216,0.14%,1.63%
CCC[C@@H]1C[C@@H](C(=O)N[C@@H]([C@H]2O[C@H](SC)[C@H](O)[C@@H](O)[C@H]2O)[C@H](C)Cl)N(C)C1,–,9.67% and 0.97%,–,-4.53% and -7.69%,5.49% and -4.6%
O=S(=O)(c1ccccc1C(F)(F)F)N1CC(c2nc(-c3ccncc3)no2)C1,-4.59,-0.78%,-1.66,-8.63%,-6.54%
COc1cc(OC)c(NC(=O)N2CCn3cccc3C2Cc2ccccc2)cc1Cl (stereo not drawn),-18.3,-0.065%,-19,-27.6%,-17.3%
CC(=O)OC/C(=C/C(=O)O)CC[C@@H]1C(C=O)=CC[C@@H]2C(C)(C)CCC[C@@]12C,-12.9,-0.112%,1.9,-17.8%,-3.65%
Cc1ccc(-c2c(C(=O)CF)n(CCCO)c3ncnc(N)c23)cc1,-3.07,4.73%,7.08,-26.1%,-5.35%
CCCCCCC/C=C\CCCCCCCCC(=O)O,-1.55,9.83%,4.05,-11.6%,-1.15%
Fc1ccc(-c2cccc(CN3CC4CCC(C3)N4c3ccc(C(F)(F)F)cc3)c2)c(F)c1,-9,-10.7%,-6.42,-17.7%,-28.2%
Cc1cccc(NC(=O)N2CCn3cccc3C2Cc2ccccc2)c1C (stereo not drawn),-6.86,3.51%,-6.85,-4.82%,-6.09%

SMILES,"activity change, negative = inhibition [1] [%]","activity change, negative = inhibition [2]","activity change, negative = inhibition [3] [%]","activity change, negative = inhibition [4]","activity change, negative = inhibition [5]"
O=C(NCC1CN(C(=O)Cc2ccc(C(F)(F)F)cc2)CC12CN(c1ccccc1)C2)c1ccccc1 (stereo not drawn),-5.88,2.05%,0.106,-4.73%,-6.78%
Cc1ccc(N(C)S(=O)(=O)c2ccc3c(c2)NC(=O)CC(=O)N3)cc1,-5.99,1.99%,-2.85,-11.7%,-6.94%
Cc1cccc(NC(=O)CSc2nnc3n(CCCOC(C)C)c(=O)c4ccccc4n23)c1,-3.73,0%,4.33,-2.46%,-0.948%
O=C(O)c1ccc2c(c1)C1C=CCC1C(c1ccc(Cl)cc1)N2 (stereo not drawn),-63.6,-21.2%,-14.2,-12.3%,-24.1%
CCOc1ccc(C(=O)N2c3ccccc3CC2c2nc(CCOC)no2)cc1 (stereo not drawn),0.406,-7.53%,0.474,-3.41%,-2.94%
CCn1c(=O)n(CC)c2cc(S(=O)(=O)Nc3ccc(Br)cc3)ccc21,0.211,0%,1.87,-9.89%,-0.582%
O=C(CCc1nnc2n(Cc3ccc(F)cc3)c(=O)c3ccccc3n12)N1CCN(c2ccc(F)cc2)CC1,0.857,0%,6.86,-0.615%,0.586%
COc1ccc(OC)c(CCNC(=O)CCc2nnc3n(CC(C)C)c(=O)c4ccccc4n23)c1,-2.66,4.04%,6.63,-1.56%,0.641%
O=C1CN(Cc2ccccc2F)S(=O)(=O)c2ccccc2N1Cc1cccc(F)c1,7.97,0%,8.69,4.29%,4.84%
O=C(O)CCCC(=O)N[C@H]1CO[C@H]2[C@@H]1OC[C@@H]2Nc1nccc(-c2ccc3c(c2)OCO3)n1,-3.87,-0.596%,-1.18,-1.18%,-4.46%
COc1ccc(-c2cc3n(n2)CC(C)(C(=O)NCc2ccccc2OC)N(c2cc(C)ccc2C)C3=O)cc1 (stereo not drawn),-2.09,2.48%,-2.16,-7.91%,-4.71%
CCC(C(=O)NCc1ccccc1C)n1ccc2cc(S(=O)(=O)N3CCCCC3)ccc21 (stereo not drawn),5.85,0.581%,0.987,4.04%,2.79%
O=C1CCCCC(CNC(=O)C2(c3ccccc3)CC2)N1 (stereo not drawn),-2.56,-0.769%,-0.575,-10.7%,8.72%
NC(N)=NC(=O)Cc1c(Cl)cccc1Cl,1.71,12.2%,-6.87,-1.93%,8.06%
CC1(C)O[C@H]2CC(=O)OC[C@]23[C@H]2CC[C@@]4(C)[C@H](c5ccoc5)OC(=O)[C@H]5O[C@]54[C@]2(C)C(=O)C[C@@H]13,0,2.02%,1.01,-10.2%,5.03%
Cc1nn2c(SCC(=O)Nc3cccc(F)c3)nnc2[nH]c1=O,14,0%,8.89,3.44%,2.43%
C=CC1(C)CC(O)C(C(=C)C(=O)OC)C(O)C1C(=C)CO (stereo not drawn),-8.99,-15.8%,-3.52,-26.1%,-1.66%
Cc1ccc(CNC(=O)C2(C)Cn3nc(C(=O)NC4CCCCC4)cc3C(=O)N2C)cc1 (stereo not drawn),9.22,4.99%,9.5,6.78%,7.02%
CC1(C(=O)NC2CCCCCCC2)Cn2c(cc3sccc32)C(=O)N1C1CCCCCC1 (stereo not drawn),-0.287,5.81%,2.94,3.09%,-0.098%
